# Laboratory results published in article PMC4336329 (PLoS ONE, 2015).
# Among all 310,000 compounds or so, about 2,200 (0.71%) showed an effect of 50% or more. Effects have a minus sign here. This is one part of the list.
# Target: human ether-à-go-go-related gene (hERG) potassium channel (human, UniProt Q12809)
# Assay: primary screen, population patch clamp on CHO cells stably expressing hERG
# Sequence of human ether-à-go-go-related gene (hERG) potassium channel (Q12809 whole entry, looked up): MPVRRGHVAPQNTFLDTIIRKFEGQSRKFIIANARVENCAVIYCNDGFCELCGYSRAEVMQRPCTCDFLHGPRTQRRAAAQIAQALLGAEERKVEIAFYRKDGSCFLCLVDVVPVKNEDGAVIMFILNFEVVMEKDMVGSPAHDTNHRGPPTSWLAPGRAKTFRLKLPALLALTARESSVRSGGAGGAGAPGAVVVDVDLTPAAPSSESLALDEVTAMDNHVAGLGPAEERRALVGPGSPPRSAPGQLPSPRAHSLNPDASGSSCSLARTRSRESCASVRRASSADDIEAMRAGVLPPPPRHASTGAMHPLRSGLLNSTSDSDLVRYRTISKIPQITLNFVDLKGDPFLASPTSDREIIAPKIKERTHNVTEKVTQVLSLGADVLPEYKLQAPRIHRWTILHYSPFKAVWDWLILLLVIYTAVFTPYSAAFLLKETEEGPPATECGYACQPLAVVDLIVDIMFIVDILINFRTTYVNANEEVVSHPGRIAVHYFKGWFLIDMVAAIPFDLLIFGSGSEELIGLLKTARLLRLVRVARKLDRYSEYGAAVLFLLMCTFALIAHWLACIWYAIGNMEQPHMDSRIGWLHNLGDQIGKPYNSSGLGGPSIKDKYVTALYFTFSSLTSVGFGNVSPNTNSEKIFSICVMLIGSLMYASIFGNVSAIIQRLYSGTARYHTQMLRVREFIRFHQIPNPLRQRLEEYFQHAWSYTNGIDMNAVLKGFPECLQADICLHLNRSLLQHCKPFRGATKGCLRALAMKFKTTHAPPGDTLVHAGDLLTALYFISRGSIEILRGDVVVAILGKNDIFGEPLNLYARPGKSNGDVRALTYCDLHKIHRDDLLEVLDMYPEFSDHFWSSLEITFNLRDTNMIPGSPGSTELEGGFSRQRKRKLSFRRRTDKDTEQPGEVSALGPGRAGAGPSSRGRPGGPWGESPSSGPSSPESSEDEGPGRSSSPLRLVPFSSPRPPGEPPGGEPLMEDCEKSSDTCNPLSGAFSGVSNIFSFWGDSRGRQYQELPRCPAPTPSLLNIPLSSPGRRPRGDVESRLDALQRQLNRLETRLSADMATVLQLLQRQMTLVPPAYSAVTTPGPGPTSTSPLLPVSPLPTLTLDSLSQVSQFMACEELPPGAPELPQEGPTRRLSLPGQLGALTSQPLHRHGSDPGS
row,SMILES,"hERG current change (%, negative = inhibition) at 1uM [%]"
1,CCc1nnc(NC(=O)CCC(=O)NCc2ccccc2Cl)s1,11.1
2,Nc1nc(SCc2cccc(Br)c2)n[nH]1,4.66
3,Cc1ccc(OC(=O)Nc2ccccc2)cc1,11.7
4,Cc1ccc(-n2c(SCC(=O)Nc3cc(C)on3)nc3c([nH]c4ccccc43)c2=O)cc1,6.78
5,COc1ccccc1CN1CC(C(=O)NCc2cc(C)on2)CCC1=O (stereo not shown),15.9
6,Cc1ccccc1N(C(=O)CCC(=O)Nc1ccccn1)C(C(=O)NC(C)C)c1ccc(F)cc1 (stereo not shown),12.2
7,COc1ccccc1N1C(=O)c2ccc(C(=O)Nc3nccs3)cc2C1=O,14.8
8,COc1ccccc1NC(=O)CSc1nc(N)c(C#N)cc1C#N,11.7
9,N#Cc1cc2c(nc1SCC1COc3ccccc3O1)CCC2 (stereo not shown),9
10,CCc1ccc(OCC(=O)Nc2ccc(-c3cc4ccccc4oc3=O)c(OC)c2)cc1,1.71
11,CC(C)c1ccc(/C=C/C(=O)N2CCc3ccccc3C2)cc1,9.04
12,COc1ccc2c(c1)c1nc3ccccc3nc1n2Cc1ccc(OC(C)C)c(OC)c1,3.75
13,CNC(=S)N/N=C/c1cn(Cc2c(F)cccc2Cl)c2ccccc12,10.9
14,CCOC(=O)N1CCN(C(=O)c2ccc3c(=O)n(CCOC)c(=O)[nH]c3c2)CC1,23.8
15,COc1cccc(OC)c1C(=O)OCC(=O)N(c1ccccc1)C1CCCCC1,4.7
16,Cl.N=C(N)Sc1nc(N2CCCCC2)nc(N2CCCCC2)n1,21.2
17,Fc1ccccc1/C=N/NC(=S)Nc1ccc(Cl)cc1Cl,6.93
18,CC(Oc1cccc(Cl)c1)C(=O)Nc1ccc([N+](=O)[O-])cn1 (stereo not shown),-12
19,CCc1c(O)c(-c2ccccc2)c(=O)n(-c2ccccn2)c1-c1ccccc1,11.4
20,CC1CC(C)CN(C(=O)c2ccc(CSc3nc4ccncc4[nH]3)cc2)C1 (stereo not shown),3.38

row,SMILES,"hERG current change (%, negative = inhibition) at 1uM [%]"
1,Nc1nnc(SCC(=O)N2CCN(Cc3ccccc3)CC2)s1,4.76
2,COc1ccccc1CC(=O)NCC(c1ccco1)N1CCCCC1 (stereo not shown),10.7
3,CC1=C(C)Cc2c(OC(=O)c3ccccc3)ccc(OC(=O)c3ccccc3)c2C1,9.73
4,CCOC(=O)c1ccc(NC(=S)N2CCSC2c2ccc(OC)cc2)cc1 (stereo not shown),-1.03
5,Cc1nn(C(C)C(=O)NCc2cccs2)c(C)c1[N+](=O)[O-] (stereo not shown),12.1
6,CN(C)S(=O)(=O)c1ccc(NC(=O)CN2C(=O)NC3(CCCC3)C2=O)cc1,9.13
7,COc1cc(C(=O)OCC(=O)Nc2nnc(-c3ccccc3)o2)cc(OC)c1OC,-1.46
8,CCOc1cc(S(=O)(=O)NCc2ccco2)c(OCC)cc1-n1cnnn1,-1.66
9,NC(=O)C1CCN(CC(O)COCc2ccccc2Cl)CC1 (stereo not shown),16.3
10,Cn1nccc1NC(=O)CSCC(=O)O,15
11,CCOc1ccc(OCc2ccc(C(=O)O)o2)cc1,5.61
12,Cc1ccc(CN2C3=NCCCN3c3ccccc32)cc1.Cl,-29.6
13,CC(C(=O)N1CCOCC1)N1C(=O)C2C3C=CC(C4CC34)C2C1=O (stereo not shown),9.09
14,NNC(=O)Cn1c(-c2nonc2N)nc2ccccc21,11.2
15,O=C(Nc1cccnc1Cl)c1cccc(F)c1,4.2
16,CCCn1c2ccccc2c2cnn(CC(=O)NCCCN3CCCC(C)C3)c(=O)c21 (stereo not shown),-24
17,CCOc1ccc(CNS(=O)(=O)c2ccc3c(c2)CC(=O)N3C)cc1,10.9
18,CC(=O)Nc1ccccc1-c1nc2cc(C#N)c(C#N)cc2[nH]c1=O,0.859
19,CCN(CC)CCNC(=O)C(=O)NCC1OCCN1S(=O)(=O)c1ccc2c(c1)OCCO2 (stereo not shown),-11
20,C/C(=N\NC(=O)CSc1nc2ccccc2s1)c1ccco1,10.5

row,SMILES,"hERG current change (%, negative = inhibition) at 1uM [%]"
1,CCCCC(c1nnnn1Cc1ccco1)N1CCN(c2nc3ccccc3s2)CC1 (stereo not shown),-7.19
2,O=C(CN1C(=O)NC2(CCCC2)C1=O)Nc1ccccc1,10.1
3,CC(C)[C@H](NC(=O)c1ccccc1F)C(=O)NCCc1ccccc1,13.9
4,COC(=O)C1=CN(CC2CCCO2)C=C(C(=O)OC)C1c1ccccc1C(F)(F)F (stereo not shown),10.1
5,COC(=O)c1ccc(OCC(O)CN2CCc3cc(OC)c(OC)cc3C2c2ccccc2)cc1 (stereo not shown),-0.14
6,O=C(Nc1ccc2oc(=O)ccc2c1)c1ccco1,-4.43
7,O=C(CCC(=O)n1ncc2ccccc21)NCc1ccc(F)cc1,-11.9
8,Clc1ccc(-c2ncc3ccccn23)cc1,15
9,CCOC(=O)c1c(CN2CCN(Cc3ccccc3)CC2)n(C)c2cc(Br)c(OC)cc12,17.1
10,COc1cc(OC)cc(-c2oc(=O)c3cc(OC)c(OC)cc3c2C#CCCCO)c1,11.8
11,Brc1cc2[nH]cnc2c2ccccc12,11.6
12,COc1cccc(NC(=O)Nc2ccc3c(c2)nnn3C)c1,10.9
13,CCS(=O)(=O)N1CCCC(C(=O)NCCCN(C)Cc2ccccc2)C1 (stereo not shown),1.42
14,CC(C)(C)NC(=S)NNC(=O)c1ccccc1Cl,5.78
15,COc1ccccc1-c1nc2n(n1)C(c1ccc(Cl)cc1)C(C(N)=O)=C(C)N2 (stereo not shown),2.15
16,Cc1[nH]nc2c1C(c1ccc3c(c1)OCO3)C(C#N)=C(N)O2 (stereo not shown),5.65
17,COc1ccc(CCNc2nc(N3CCCCC3)nc(N3CCCCC3)n2)cc1OC,6.28
18,Cc1c(NC(=O)C(C)Sc2nc3ccccc3c(=O)n2CCO)c(=O)n(-c2ccccc2)n1C (stereo not shown),4.78
